Laboratory results taken from US10299477B2 (priority 2015, dated 2019).

Columns and labels:
Alternaia brassicicola = assay: Test Example C: Alternaria sooty spot on cabbage; assay type: in vivo; conditions: for Test C (control value class): Alternaria sooty spot on cabbage; for Test C (control value class, Alternaria sooty spot on cabbage): in vivo
[1] = test system: Blumeria graminis f sp. hordei; assay: Test Example D: Powdery mildew on barley; assay type: in vivo; conditions: for Test D (control value class, powdery mildew on barley): in vivo
Plasmopara viticola = assay: Test Example G: Downy mildew on vine; assay type: in vivo; conditions: for Test G (control value class): 250 ppm spray; for Test G (control value class, downy mildew on vine): 250 ppm, sprayed 2.5 ml/pot before inoculation
Puccinia recondita = assay: Test Example E: Brown rust on wheat; assay type: in vivo; conditions: for Test E (control value class, brown rust on wheat): in vivo
Botrytis cinerea = assay: Test Example B: Gray mold on tomato; assay type: in vivo; conditions: for Test B (control value class, gray mold on tomato): in vivo
[2] = test system: Colletotrichum orbiculare; conditions: for Test H (control value class): in vivo; for Test H (control value class, anthracnose on cucumber): 250 ppm, sprayed 2.5 ml/pot before inoculation, evaluated 6-10 days after inoculation
[3] = powdery mildew on barley, 250 ppm spray
[4] = downy mildew on vine, Plasmopara viticola, 7-10 days after inoculation
[5] = brown rust on wheat, Puccinia recondita, 250 ppm spray
[6] = gray mold on tomato, Botrytis cinerea, 250 ppm spray
[7] = evaluated 7-10 days after inoculation
[8] = Powdery mildew on barley, control value=100{1-(n/3)}
[9] = Downy mildew on vine, 2.5 ml/pot, evaluated 7-10 days after inoculation
[10] = Brown rust on wheat, control value=100{1-(n/3)}
[11] = Gray mold on tomato, control value=100{1-(n/3)}

Row | Compound | Test C (control value class) (Alternaia brassicicola; 250 ppm spray) | Test D (control value class) [1, 3] | Test G (control value class) (Plasmopara viticola; [4]) | Test E (control value class) (Puccinia recondita; [5]) | Test B (control value class) (Botrytis cinerea; [6]) | Test H (control value class) [2] | Test C (control value class, Alternaria sooty spot on cabbage) (Alternaia brassicicola) | Test D (control value class, powdery mildew on barley) [1] | Test G (control value class, downy mildew on vine) (Plasmopara viticola; [7]) | Test E (control value class, brown rust on wheat) (Puccinia recondita) | Test B (control value class, gray mold on tomato) (Botrytis cinerea) | Test H (control value class, anthracnose on cucumber) [2] | Test C (control value class) (Alternaia brassicicola; control value=100{1-(n/3)}) | Test D (control value class) [1, 8] | Test G (control value class) (Plasmopara viticola; [9]) | Test E (control value class) (Puccinia recondita; [10]) | Test B (control value class) (Botrytis cinerea; [11])
1 | CCn1c(-c2c(F)cccc2F)c(-c2cccc(F)c2F)ccc1=O [Compound 518] | H (H shows more than 50% of control values) | H (H shows more than 50% of control values) | L (L shows 50% or less of control values) | H (H shows more than 50% of control values) | H (H shows more than 50% of control values) | H (key: H shows more than 50% of control values; L shows 50% or less of control values) |  |  |  |  |  |  |  |  |  |  | 
2 | Cn1c(-c2c(F)cc(F)cc2F)c(-c2cccc(F)c2F)ccc1=O [Compound 557] | H (H shows more than 50% of control values) | H (H shows more than 50% of control values) | H (H shows more than 50% of control values) | H (H shows more than 50% of control values) | H (H shows more than 50% of control values) | H (key: H shows more than 50% of control values; L shows 50% or less of control values) |  |  |  |  |  |  |  |  |  |  | 
3 | COc1cc(F)c(-c2c(-c3cccc(F)c3F)cc(Br)c(=O)n2C)c(F)c1 [Compound 563] |  |  |  |  |  |  | H (H shows more than 50% of control values) | H (H shows more than 50% of control values) | L (L shows 50% or less of control values) | H (H shows more than 50% of control values) | H (H shows more than 50% of control values) | H (H shows more than 50% of control values) |  |  |  |  | 
4 | Cn1c(-c2c(F)cc(F)cc2F)c(-c2cc(F)cc(F)c2Cl)ccc1=O [Compound 586] |  |  |  |  |  |  | H (H shows more than 50% of control values) | H (H shows more than 50% of control values) | L (L shows 50% or less of control values) | H (H shows more than 50% of control values) | H (H shows more than 50% of control values) | H (H shows more than 50% of control values) |  |  |  |  | 
5 | CCn1c(-c2c(F)cccc2F)c(-c2ccc(F)cc2F)ccc1=O [Compound 629] |  |  |  |  |  |  | H (H shows more than 50% of control values) | H (H shows more than 50% of control values) | H (H shows more than 50% of control values) | H (H shows more than 50% of control values) | H (H shows more than 50% of control values) | H (H shows more than 50% of control values) |  |  |  |  | 
6 | Cn1c(-c2c(F)cccc2F)c(-c2ccc(F)cc2F)ccc1=O [Compound 631] |  |  |  |  |  |  | H (H shows more than 50% of control values) | H (H shows more than 50% of control values) | L (L shows 50% or less of control values) | H (H shows more than 50% of control values) | H (H shows more than 50% of control values) | H (H shows more than 50% of control values) |  |  |  |  | 
7 | CCn1c(-c2c(F)cc(OC)cc2F)c(-c2cccc(OC)c2Cl)cc(Br)c1=O [Compound 642] |  |  |  |  |  |  | H (H shows more than 50% of control values) | H (H shows more than 50% of control values) | H (H shows more than 50% of control values) | H (H shows more than 50% of control values) | H (H shows more than 50% of control values) | H (H shows more than 50% of control values) |  |  |  |  | 
8 | O=c1c(Cl)cc(-c2ccc(F)cc2F)c(-c2c(F)cccc2F)n1CC(F)F [Compound 648] |  |  |  |  |  |  | H (H shows more than 50% of control values) | H (H shows more than 50% of control values) | L (L shows 50% or less of control values) | H (H shows more than 50% of control values) | H (H shows more than 50% of control values) | H (H shows more than 50% of control values) |  |  |  |  | 
9 | CCn1c(-c2c(F)cc(F)cc2F)c(-c2cccc(F)c2C)cc(Cl)c1=O [Compound 675] |  |  |  |  |  |  | H (H shows more than 50% of control values) | H (H shows more than 50% of control values) | H (H shows more than 50% of control values) | H (H shows more than 50% of control values) | H (H shows more than 50% of control values) | H (H shows more than 50% of control values) |  |  |  |  | 
10 | CCn1c(-c2c(F)cc(F)cc2F)c(-c2cc(F)cc(F)c2Cl)cc(Br)c1=O [Compound 688] |  |  |  |  |  |  | H (H shows more than 50% of control values) | H (H shows more than 50% of control values) | L (L shows 50% or less of control values) | H (H shows more than 50% of control values) | H (H shows more than 50% of control values) | H (H shows more than 50% of control values) |  |  |  |  | 
11 | CCOc1cc(F)c(-c2c(-c3cccc(F)c3C)cc(Cl)c(=O)n2CC)c(F)c1 [Compound 700] |  |  |  |  |  |  | H (H shows more than 50% of control values) | H (H shows more than 50% of control values) | H (H shows more than 50% of control values) | H (H shows more than 50% of control values) | H (H shows more than 50% of control values) | H (H shows more than 50% of control values) |  |  |  |  | 
12 | CCn1c(-c2c(F)cc(C)cc2F)c(-c2cc(F)ccc2Cl)cc(Br)c1=O [Compound 709] |  |  |  |  |  |  | L (L shows 50% or less of control values) | L (L shows 50% or less of control values) | L (L shows 50% or less of control values) | L (L shows 50% or less of control values) | H (H shows more than 50% of control values) | L (L shows 50% or less of control values) |  |  |  |  | 
13 | CCn1c(-c2c(F)cc(OC)cc2F)c(-c2ccc(OC)cc2Cl)cc(C)c1=O [Compound 751] |  |  |  |  |  | H (key: H shows more than 50% of control values; L shows 50% or less of control values) |  |  |  |  |  |  | H (H shows more than 50% of control values) | H (H shows more than 50% of control values) | L (L shows 50% or less of control values) | H (H shows more than 50% of control values) | H (H shows more than 50% of control values)
14 | COc1ccc(-c2cc(Cl)c(=O)n(C)c2-c2c(F)cc(F)cc2F)c(Cl)c1 [Compound 766] |  |  |  |  |  | H (key: H shows more than 50% of control values; L shows 50% or less of control values) |  |  |  |  |  |  | H (H shows more than 50% of control values) | L (L shows 50% or less of control values) | L (L shows 50% or less of control values) | H (H shows more than 50% of control values) | H (H shows more than 50% of control values)
